Substitutions are numbered along the chain they refer to; changes in the protein carry UniProt numbers. This is one part of the list.
T1: RBFOX1 RRM RbFoxmut (Fox-RRM*) (Homo sapiens, UniProt Q9NWB1 109-208, R118D;E147R;N151S;E152T)
T1 sequence: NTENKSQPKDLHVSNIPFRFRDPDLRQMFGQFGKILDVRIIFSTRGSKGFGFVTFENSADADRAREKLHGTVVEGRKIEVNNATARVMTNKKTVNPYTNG

B1: UGGACGG (DNA:RNA)
RNA: GGGAGACCGGAAUUCAGAUUGUCCUGGACGGUUAAAUCCCGUCGUAGCCACCA
DNA 1: CAATCTGAATTCCGGTCTCCC
DNA 2: TGGTGGCTACGACGGGATT
B2: GGAGCGA (DNA:RNA)
RNA: B1 RNA with U25G, G27A, A28G, G31A
DNA 1: CAATCTGAATTCCGGTCTCCC
DNA 2: TGGTGGCTACGACGGGATT
B3: GAUGCGG (DNA:RNA)
RNA: B1 RNA with U25G, G26A, G27U, A28G
DNA 1: CAATCTGAATTCCGGTCTCCC
DNA 2: TGGTGGCTACGACGGGATT
B4: ACUAAGG (DNA:RNA)
RNA: B1 RNA with U25A, G26C, G27U, C29A
DNA 1: CAATCTGAATTCCGGTCTCCC
DNA 2: TGGTGGCTACGACGGGATT
B5: AACCUCU (DNA:RNA)
RNA: GGGAGACCGGAAUUCAGAUUGUCCAACCUCUUUAAAUCCCGUCGUAGCCACCA
DNA 1: CAATCTGAATTCCGGTCTCCC
DNA 2: TGGTGGCTACGACGGGATT
B6: CAAUUUC (DNA:RNA)
RNA: B5 RNA with A25C, C27A, C28U, C30U, U31C
DNA 1: CAATCTGAATTCCGGTCTCCC
DNA 2: TGGTGGCTACGACGGGATT
B7: UACUUGG (DNA:RNA)
RNA: B5 RNA with A25U, C28U, C30G, U31G
DNA 1: CAATCTGAATTCCGGTCTCCC
DNA 2: TGGTGGCTACGACGGGATT
B8: UAUUUCG (DNA:RNA)
RNA: B5 RNA with A25U, C27U, C28U, U31G
DNA 1: CAATCTGAATTCCGGTCTCCC
DNA 2: TGGTGGCTACGACGGGATT
B9: GAUCGCA (DNA:RNA)
RNA: B5 RNA with A25G, C27U, U29G, U31A
DNA 1: CAATCTGAATTCCGGTCTCCC
DNA 2: TGGTGGCTACGACGGGATT
B10: GAAGGCC (DNA:RNA)
RNA: B5 RNA with A25G, C27A, C28G, U29G, U31C
DNA 1: CAATCTGAATTCCGGTCTCCC
DNA 2: TGGTGGCTACGACGGGATT
B11: AUAUCAU (DNA:RNA)
RNA: B5 RNA with A26U, C27A, C28U, U29C, C30A
DNA 1: CAATCTGAATTCCGGTCTCCC
DNA 2: TGGTGGCTACGACGGGATT
B12: GCACCGA (DNA:RNA)
RNA: B1 RNA with U25G, G26C, G27A, A28C, G31A
DNA 1: CAATCTGAATTCCGGTCTCCC
DNA 2: TGGTGGCTACGACGGGATT
B13: ACCCCUG (DNA:RNA)
RNA: B5 RNA with A26C, U29C, C30U, U31G
DNA 1: CAATCTGAATTCCGGTCTCCC
DNA 2: TGGTGGCTACGACGGGATT
B14: ACUACGA (DNA:RNA)
RNA: B1 RNA with U25A, G26C, G27U, G31A
DNA 1: CAATCTGAATTCCGGTCTCCC
DNA 2: TGGTGGCTACGACGGGATT
B15: CGACUGG (DNA:RNA)
RNA: B1 RNA with U25C, G27A, A28C, C29U
DNA 1: CAATCTGAATTCCGGTCTCCC
DNA 2: TGGTGGCTACGACGGGATT
B16: UUCGACU (DNA:RNA)
RNA: B5 RNA with A25U, A26U, C28G, U29A
DNA 1: CAATCTGAATTCCGGTCTCCC
DNA 2: TGGTGGCTACGACGGGATT
B17: GGGAUAC (DNA:RNA)
RNA: B1 RNA with U25G, C29U, G30A, G31C
DNA 1: CAATCTGAATTCCGGTCTCCC
DNA 2: TGGTGGCTACGACGGGATT
B18: CUCGCGA (DNA:RNA)
RNA: B1 RNA with U25C, G26U, G27C, A28G, G31A
DNA 1: CAATCTGAATTCCGGTCTCCC
DNA 2: TGGTGGCTACGACGGGATT
B19: AUGCGAC (DNA:RNA)
RNA: B5 RNA with A26U, C27G, U29G, C30A, U31C
DNA 1: CAATCTGAATTCCGGTCTCCC
DNA 2: TGGTGGCTACGACGGGATT
B20: CGCCCUC (DNA:RNA)
RNA: B5 RNA with A25C, A26G, U29C, C30U, U31C
DNA 1: CAATCTGAATTCCGGTCTCCC
DNA 2: TGGTGGCTACGACGGGATT
B21: UUACGAU (DNA:RNA)
RNA: B5 RNA with A25U, A26U, C27A, U29G, C30A
DNA 1: CAATCTGAATTCCGGTCTCCC
DNA 2: TGGTGGCTACGACGGGATT
B22: AUGGUGA (DNA:RNA)
RNA: B5 RNA with A26U, C27G, C28G, C30G, U31A
DNA 1: CAATCTGAATTCCGGTCTCCC
DNA 2: TGGTGGCTACGACGGGATT
B23: CGUGCCU (DNA:RNA)
RNA: B5 RNA with A25C, A26G, C27U, C28G, U29C
DNA 1: CAATCTGAATTCCGGTCTCCC
DNA 2: TGGTGGCTACGACGGGATT
B24: UUAAACU (DNA:RNA)
RNA: B5 RNA with A25U, A26U, C27A, C28A, U29A
DNA 1: CAATCTGAATTCCGGTCTCCC
DNA 2: TGGTGGCTACGACGGGATT
B25: GCGUUGA (DNA:RNA)
RNA: B1 RNA with U25G, G26C, A28U, C29U, G31A
DNA 1: CAATCTGAATTCCGGTCTCCC
DNA 2: TGGTGGCTACGACGGGATT
B26: GUCCUUG (DNA:RNA)
RNA: B5 RNA with A25G, A26U, C30U, U31G
DNA 1: CAATCTGAATTCCGGTCTCCC
DNA 2: TGGTGGCTACGACGGGATT
B27: GGGGCCC (DNA:RNA)
RNA: B1 RNA with U25G, A28G, G30C, G31C
DNA 1: CAATCTGAATTCCGGTCTCCC
DNA 2: TGGTGGCTACGACGGGATT
B28: CGCGGCC (DNA:RNA)
RNA: B5 RNA with A25C, A26G, C28G, U29G, U31C
DNA 1: CAATCTGAATTCCGGTCTCCC
DNA 2: TGGTGGCTACGACGGGATT
B29: GCACCUU (DNA:RNA)
RNA: B5 RNA with A25G, A26C, C27A, U29C, C30U
DNA 1: CAATCTGAATTCCGGTCTCCC
DNA 2: TGGTGGCTACGACGGGATT
B30: AGGACGU (DNA:RNA)
RNA: B1 RNA with U25A, G31U
DNA 1: CAATCTGAATTCCGGTCTCCC
DNA 2: TGGTGGCTACGACGGGATT
B31: GUAAAGG (DNA:RNA)
RNA: B1 RNA with U25G, G26U, G27A, C29A
DNA 1: CAATCTGAATTCCGGTCTCCC
DNA 2: TGGTGGCTACGACGGGATT

Target: T1, RBFOX1 RRM RbFoxmut (Fox-RRM*)
Assay: EMSA; HiTS-Eq, 1 nM pool, 10 min; buffer printed only for the single-RNA assays: 10 mM Tris pH 7.5, 150 mM NaCl, 3.4 mM EDTA, 0.001% NP-40, 30 C
Conditions: tags: His6 N-terminal (pET28a); label: 5' 32P
In short: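 A pool of RNA with 7 randomized nucleotides, 5′-radiolabelled and with DNA-annealed flanks, was equilibrated at 1 nM for 10 min in 50 µL with purified RbFox RRM, wild type or mutant, across increasing protein concentrations. Free RNA was separated by 8% native PAGE, excised, reverse-transcribed, barcoded by PCR and sequenced. Relative association constants were obtained from read-count changes of each RNA species versus the control reaction and normalised to the cognate motif.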

| Binder | binding signal |
| --- | --- |
| B1 | 0.128 KA relative to UGCAUGU |
| B2 | 0.101 KA relative to UGCAUGU |
| B3 | 0.0601 KA relative to UGCAUGU |
| B4 | 0.0914 KA relative to UGCAUGU |
| B5 | 0.0521 KA relative to UGCAUGU |
| B6 | 0.0695 KA relative to UGCAUGU |
| B7 | 0.0893 KA relative to UGCAUGU |
| B8 | 0.115 KA relative to UGCAUGU |
| B9 | 0.131 KA relative to UGCAUGU |
| B10 | 0.0919 KA relative to UGCAUGU |
| B11 | 0.12 KA relative to UGCAUGU |
| B12 | 0.173 KA relative to UGCAUGU |
| B13 | 0.0845 KA relative to UGCAUGU |
| B14 | 0.0683 KA relative to UGCAUGU |
| B15 | 0.206 KA relative to UGCAUGU |
| B16 | 0.0754 KA relative to UGCAUGU |

| Binder | binding signal |
| --- | --- |
| B17 | 0.103 KA relative to UGCAUGU |
| B18 | 0.0813 KA relative to UGCAUGU |
| B19 | 0.0727 KA relative to UGCAUGU |
| B20 | 0.0492 KA relative to UGCAUGU |
| B21 | 0.0651 KA relative to UGCAUGU |
| B22 | 0.126 KA relative to UGCAUGU |
| B23 | 0.11 KA relative to UGCAUGU |
| B24 | 0.0636 KA relative to UGCAUGU |
| B25 | 0.108 KA relative to UGCAUGU |
| B26 | 0.116 KA relative to UGCAUGU |
| B27 | 0.0909 KA relative to UGCAUGU |
| B28 | 0.328 KA relative to UGCAUGU |
| B29 | 0.106 KA relative to UGCAUGU |
| B30 | 0.101 KA relative to UGCAUGU |
| B31 | 0.0554 KA relative to UGCAUGU |
